# Test results: the supplement of paper PMC3334620
# In all, about 33,000 sequences were measured (“E-score (-0.5 to 0.5)”: median about -0.04, highest 2% from about 0.36 on). This is one part of the list.
# Target: T1, Hmlalpha2 (UniProt P0CY09)
# T1 sequence: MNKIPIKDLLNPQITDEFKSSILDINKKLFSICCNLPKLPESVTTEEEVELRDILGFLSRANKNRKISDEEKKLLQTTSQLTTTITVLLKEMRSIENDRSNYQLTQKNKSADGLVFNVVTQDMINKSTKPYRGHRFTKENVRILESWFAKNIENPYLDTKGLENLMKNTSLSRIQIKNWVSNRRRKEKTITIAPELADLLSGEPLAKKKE
# Experiment: PBM E-score (8-mer binding enrichment) (E-score (-0.5 to 0.5)); higher = stronger / more preferred TF binding; most listed sequences are background and not binding sites
# Conditions: protein concentration: 200 nM; construct: GST-full length
# Description: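 Universal 'all 10-mer' protein binding microarrays (Agilent AMADID 015681) probed with GST-tagged S. cerevisiae TFs (full-length or DBD) made by in vitro transcription/translation (PURExpress), about 100-200 nM. Bound TF was detected with fluorescent anti-GST. Each ungapped 8-mer (which stands for itself and its reverse complement) is scored by the PBM enrichment score (E-score), a modified Wilcoxon-Mann-Whitney statistic from -0.5 to +0.5, computed with the Universal PBM Analysis Suite. Scale: above 0.35 generally sequence-specific binding.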
row,Sequence,PBM E-score
1,ATATTACA,0.439
2,AATATAAA,0.138
3,GACATCCC,-0.0319
4,AGTCTAGC,-0.287
5,GCGCTTGA,-0.0211
6,AAACCTGA,-0.12
7,ACTGAAGG,-0.0352
8,CGTAGCCA,-0.135
9,ACGCACGC,0.222
10,CAGTGCAG,-0.0392
11,CTAGGTGA,-0.157
12,AGCCACGG,-0.254
13,AACCATGG,-0.151
14,AGATCGTA,-0.103
15,ATGGTAAT,0.229
16,TTGGACAA,0.0109
17,AGCCGTCA,-0.154
18,CGTACCAG,-0.11
19,ATGTACAT,0.457
20,ATCAATTC,-0.0186
21,GTTAAAAA,0.369
22,CCCGCTTC,-0.186

row,Sequence,PBM E-score
1,CCAGCGAG,-0.231
2,GCTTGTCC,0.0243
3,ACCAGCCT,-0.298
4,CTTGGAAA,0.00718
5,AGGAGGAT,-0.0653
6,AACCCACT,0.049
7,GGGGGTGA,-0.275
8,CACCGGGC,-0.256
9,AAGCCTAC,-0.0304
10,ATTCCGTC,-0.126
11,AAGACCTT,-0.043
12,GTGTCCGA,-0.00682
13,TGTCCAAA,0.129
14,GTTGCGCA,0.0149
15,GGGGACAC,-0.178
16,CTTAGTGC,-0.0694
17,CCTTGGAC,-0.179
18,AGCAAGCG,-0.131
19,GGCAGCCC,-0.418
20,CCATGTCA,0.333
21,GAAGGCAC,-0.049
22,CCTGAACC,-0.0377

row,Sequence,PBM E-score
1,GTATACAC,0.416
2,AGGATCGA,-0.105
3,AGCCGGAG,0.00718
4,ACAGGCAT,0.0686
5,ACAAGCCC,-0.0483
6,CCGGACCA,-0.0856
7,AAGTATAT,0.145
8,ACTTGCGA,-0.0274
9,ATGGCGTC,-0.143
10,CCATGTCG,0.336
11,AGCTTCCG,-0.161
12,AAACGTGC,0.0623
13,CGAATTAA,0.105
14,CCCATAAC,0.026
15,AGTTTATA,0.222
16,ATCCGACC,-0.0115
17,ATCAGTAG,-0.0277
18,CATGGACC,-0.0675
19,ACAGTTGA,-0.0582
20,ACCCCATC,-0.218
21,AATTACTG,0.11
22,ACTGCGCA,-0.113

row,Sequence,PBM E-score
1,AGGTAAAG,0.19
2,CGCTAACA,0.205
3,ATATTTTA,0.101
4,TCTTGCAA,0.131
5,ACATATGC,0.123
6,CGAGTATA,0.0118
7,CCCAGGGA,-0.372
8,CGAAATCC,-0.0484
9,TGGAGTAA,0.0743
10,ATCCTGAC,-0.0392
11,AACAGCCT,-0.0473
12,AGACCGAC,-0.068
13,GCCACCGA,-0.176
14,AGCACTGA,-0.209
15,ACGTTATC,0.145
16,CGAAATTA,0.137
17,CCGCTTAC,0.0139
18,GAACATGA,0.31
19,ACCTGTAG,-0.162
20,CATCCCGG,-0.169
21,ATGTGCCG,-0.252
22,GTGGCAGA,-0.286

row,Sequence,PBM E-score
1,ATAAGAGG,-0.214
2,ACAAGAAG,0.109
3,GCAAGGGC,-0.33
4,AACGCCAG,0.0358
5,ATCGATTG,0.0324
6,CACGCGCG,0.0866
7,CTTATGCC,-0.135
8,CCGGCACC,-0.24
9,TACAAACA,0.314
10,AACCCTGA,-0.0189
11,TTGCCAAA,-0.11
12,CCCTCGCC,-0.357
13,CATGCCTA,-0.234
14,ATAGATTG,0.041
15,CGCCAAAG,-0.306
16,GAGCCACA,-0.238
17,ACGACTGC,-0.0517
18,AAACTCAC,0.0451
19,CTGTGCTA,-0.00224
20,CTATCGCA,-0.0573
21,GCCTTGTA,0.33
